For three compounds, TGI results are on record in PubChem BioAssay (NCI).

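Values below derive from 48-hour exposures of cells grown in 96-well plates, with endpoints linearly interpolated between the two concentrations bracketing the appropriate inhibition level. TGI marks complete inhibition of growth.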 The source holds more than one record for some entries. This list holds those alone. An entry can have further records. The tests behind the records often covered other concentration ranges, not given here; some values may only mark the edge of a range.

Among the test systems are HL-60(TB) leukemia; MOLT-4 leukemia; IGROV1 ovarian; SNB-19 CNS; NCI/ADR-RES ovarian; CCRF-CEM leukemia; NCI-H23 lung; LOX IMVI melanoma; ACHN renal; RPMI-8226 leukemia; HT29 colon; KM12 colon; SW-620 colon; HOP-62 NSCLC; OVCAR-8 ovarian; COLO 205 colon; CAKI-1 renal.
Holding throughout (assay): growth of human tumour cells (NCI), 48 h

Consider `Cc1cccc2nc3cccc(C(=O)NCCC[N+](C)(CCCNC(=O)c4cccc5nc6cccc(C)c6nc45)Cc4c([N+](=O)[O-])ncn4C)c3nc12`, for which the TGI with HL-60(TB) leukemia is 65.7 µM and > 1.1 mM; with MOLT-4 leukemia, 1.12 µM and > 1.1 mM.
As for `CC(=O)NC1C(OCc2ccccc2)OC(CO)C(O)C1OCC(=O)NC(C)C(=O)NC(CCC(=O)NCCCCCNc1c2ccccc2nc2cccc([N+](=O)[O-])c12)C(N)=O` (stereo not drawn), the TGI in the test on MOLT-4 leukemia was 5.35 nM and 1.74 µM; in the test on IGROV1 ovarian it was 6.56 nM and 84.9 nM; with SNB-19 CNS, 14.1 nM and 11.5 µM; in the test with NCI/ADR-RES ovarian, 146 nM and > 100 µM; in the test on CCRF-CEM leukemia, 285 nM and > 100 µM.
In the case of `CN(C)CCCNc1c2ccccc2nc2cccc([N+](=O)[O-])c12`, the TGI in the test on NCI-H23 lung was 1.56 nM and 16.9 nM; in the test with LOX IMVI melanoma it was 4.86 nM and 53.4 nM; with ACHN renal, < 1 nM and 26.1 nM; in the test with RPMI-8226 leukemia it was 5.1 nM and 68.1 nM; in the test with HT29 colon it was 10.3 nM and 138 nM; with KM12 colon it was 3.67 nM and 95.3 nM. The TGI in the test with SW-620 colon is 4.15 nM and 101 nM; in the test on HOP-62 NSCLC, 6.83 nM and 128 nM; in the test with OVCAR-8 ovarian, 4.84 nM and 140 nM; in the test with COLO 205 colon, 1.37 nM and 18.3 nM; in the test on CAKI-1 renal it was 3.73 nM and 356 nM.
